Tested on: Colletotrichum orbiculare
Details: for Test H (control value class, anthracnose on cucumber): 250 ppm, sprayed 2.5 ml/pot before inoculation, evaluated 6-10 days after inoculation; for Test H (control value class): in vivo

SMILES | Test H (control value class, anthracnose on cucumber) | Test H (control value class)
COc1ccc(Cl)c(-c2cc(C)c(=O)n(C)c2-c2c(F)cc(F)cc2F)c1 [Compound 726] | H (H shows more than 50% of control values) | 
CCn1c(-c2c(F)cc(OCC(F)(F)F)cc2F)c(-c2cccc(F)c2Cl)cc(Cl)c1=O [Compound 727] | H (H shows more than 50% of control values) | 
CCn1c(-c2c(F)cccc2F)c(-c2cc(OC)cc(OC)c2Cl)ccc1=O [Compound 728] | H (H shows more than 50% of control values) | 
CCn1c(-c2c(F)cccc2F)c(-c2cc(F)cc(F)c2F)ccc1=O [Compound 729] | H (H shows more than 50% of control values) | 
CCOc1cc(F)c(-c2c(-c3ccccc3Cl)ccc(=O)n2C)c(F)c1 [Compound 730] | H (H shows more than 50% of control values) | 
Cc1cc(-c2ccccc2Cl)c(-c2c(F)cc(F)cc2F)n(C)c1=O [Compound 731] | H (H shows more than 50% of control values) | 
COc1cc(F)c(-c2c(-c3ccccc3Cl)cc(Br)c(=O)n2C)c(F)c1 [Compound 732] | H (H shows more than 50% of control values) | 
COc1cc(F)c(-c2c(-c3ccccc3Cl)cc(C)c(=O)n2C)c(F)c1 [Compound 733] | H (H shows more than 50% of control values) | 
CCn1c(-c2c(F)cccc2F)c(-c2ccc(OC)cc2Cl)cc(Cl)c1=O [Compound 736] | H (H shows more than 50% of control values) | 
CCn1c(-c2c(F)cccc2F)c(-c2ccc(OC)cc2Cl)cc(Br)c1=O [Compound 737] | H (H shows more than 50% of control values) | 
CCn1c(-c2c(F)cc(F)cc2F)c(-c2cc(F)ccc2Cl)ccc1=O [Compound 738] | H (H shows more than 50% of control values) | 
CCn1c(-c2c(F)cc(OC)cc2F)c(-c2cc(F)ccc2Cl)ccc1=O [Compound 739] | H (H shows more than 50% of control values) | 
COc1ccc(-c2ccc(=O)n(C)c2-c2c(F)cccc2F)c(Cl)c1 [Compound 740] | H (H shows more than 50% of control values) | 
COc1ccc(-c2cc(Br)c(=O)n(C)c2-c2c(F)cccc2F)c(Cl)c1 [Compound 744] | L (L shows 50% or less of control values) | 
CCn1c(-c2c(F)cccc2F)c(-c2cccc(F)c2Cl)cc(Br)c1=O [Compound 745] | H (H shows more than 50% of control values) | 
CCn1c(-c2c(F)cc(F)cc2F)c(-c2ccc(OC)cc2Cl)cc(Cl)c1=O [Compound 746] | H (H shows more than 50% of control values) | 
CCn1c(-c2c(F)cc(F)cc2F)c(-c2ccc(OC)cc2Cl)cc(Br)c1=O [Compound 747] | H (H shows more than 50% of control values) | 
CCn1c(-c2c(F)cc(OC)cc2F)c(-c2ccc(OC)cc2Cl)cc(Cl)c1=O [Compound 748] | L (L shows 50% or less of control values) | 
COc1ccc(-c2cc(C)c(=O)n(C)c2-c2c(F)cccc2F)c(Cl)c1 [Compound 749] |  | L (key: H shows more than 50% of control values; L shows 50% or less of control values)
CCn1c(-c2c(F)cc(F)cc2F)c(-c2ccc(OC)cc2Cl)cc(C)c1=O [Compound 750] |  | H (key: H shows more than 50% of control values; L shows 50% or less of control values)
CCn1c(-c2c(F)cccc2F)c(-c2cccc(F)c2Cl)cc(C)c1=O [Compound 752] |  | H (key: H shows more than 50% of control values; L shows 50% or less of control values)
Cc1cc(-c2cccc(F)c2Cl)c(-c2c(F)cccc2F)n(C)c1=O [Compound 754] |  | H (key: H shows more than 50% of control values; L shows 50% or less of control values)
CCn1c(-c2c(F)cc(OC)cc2F)c(-c2ccc(OC)cc2Cl)ccc1=O [Compound 755] |  | H (key: H shows more than 50% of control values; L shows 50% or less of control values)
COc1ccc(-c2ccc(=O)n(C)c2-c2c(F)cc(F)cc2F)c(Cl)c1 [Compound 756] |  | H (key: H shows more than 50% of control values; L shows 50% or less of control values)
Cn1c(-c2c(F)cc(F)cc2F)c(-c2cc(F)ccc2Cl)cc(Br)c1=O [Compound 757] |  | H (key: H shows more than 50% of control values; L shows 50% or less of control values)

SMILES | Test H (control value class, anthracnose on cucumber) | Test H (control value class)
Cc1cc(-c2cc(F)ccc2Cl)c(-c2c(F)cc(F)cc2F)n(C)c1=O [Compound 758] |  | H (key: H shows more than 50% of control values; L shows 50% or less of control values)
COc1cc(F)c(-c2c(-c3cc(F)ccc3Cl)cc(C)c(=O)n2C)c(F)c1 [Compound 759] |  | H (key: H shows more than 50% of control values; L shows 50% or less of control values)
COc1cc(F)c(-c2c(-c3cc(F)ccc3Cl)ccc(=O)n2C)c(F)c1 [Compound 760] |  | H (key: H shows more than 50% of control values; L shows 50% or less of control values)
COc1cc(F)c(-c2c(-c3cc(F)ccc3Cl)cc(Cl)c(=O)n2C)c(F)c1 [Compound 761] |  | H (key: H shows more than 50% of control values; L shows 50% or less of control values)
CCn1c(-c2c(F)cc(F)cc2F)c(-c2ccccc2)ccc1=O [Compound 762] |  | H (key: H shows more than 50% of control values; L shows 50% or less of control values)
CCn1c(-c2c(F)cc(OC)cc2F)c(-c2ccccc2)ccc1=O [Compound 763] |  | H (key: H shows more than 50% of control values; L shows 50% or less of control values)
COc1cc(F)c(-c2c(-c3ccc(OC)cc3Cl)ccc(=O)n2C)c(F)c1 [Compound 765] |  | H (key: H shows more than 50% of control values; L shows 50% or less of control values)
COc1ccc(-c2cc(Br)c(=O)n(C)c2-c2c(F)cc(F)cc2F)c(Cl)c1 [Compound 767] |  | H (key: H shows more than 50% of control values; L shows 50% or less of control values)
CCn1c(-c2c(F)cc(F)cc2F)c(-c2cc(OC)ccc2Cl)cc(Br)c1=O [Compound 768] |  | H (key: H shows more than 50% of control values; L shows 50% or less of control values)
CCn1c(-c2c(F)cc(F)cc2F)c(-c2cc(OC)ccc2Cl)cc(C)c1=O [Compound 769] |  | H (key: H shows more than 50% of control values; L shows 50% or less of control values)
CCn1c(-c2c(F)cc(OC)cc2F)c(-c2cc(OC)ccc2Cl)ccc1=O [Compound 770] |  | H (key: H shows more than 50% of control values; L shows 50% or less of control values)
CCn1c(-c2c(F)cc(OC)cc2F)c(-c2cc(OC)ccc2Cl)cc(Cl)c1=O [Compound 772] |  | H (key: H shows more than 50% of control values; L shows 50% or less of control values)
CCn1c(-c2c(F)cc(OC)cc2F)c(-c2ccccc2)cc(Cl)c1=O [Compound 773] |  | H (key: H shows more than 50% of control values; L shows 50% or less of control values)
CCn1c(-c2c(F)cc(F)cc2F)c(-c2ccccc2)cc(Br)c1=O [Compound 774] |  | H (key: H shows more than 50% of control values; L shows 50% or less of control values)
COc1cc(F)c(-c2c(-c3ccc(OC)cc3Cl)cc(Cl)c(=O)n2C)c(F)c1 [Compound 776] |  | L (key: H shows more than 50% of control values; L shows 50% or less of control values)
Cn1c(-c2c(F)cc(F)cc2F)c(-c2ccccc2)ccc1=O [Compound 777] |  | H (key: H shows more than 50% of control values; L shows 50% or less of control values)
COc1cc(F)c(-c2c(-c3ccccc3)ccc(=O)n2C)c(F)c1 [Compound 778] |  | H (key: H shows more than 50% of control values; L shows 50% or less of control values)
Cn1c(-c2c(F)cc(F)cc2F)c(-c2ccccc2)cc(Cl)c1=O [Compound 779] |  | H (key: H shows more than 50% of control values; L shows 50% or less of control values)
COc1cc(F)c(-c2c(-c3ccccc3)cc(Cl)c(=O)n2C)c(F)c1 [Compound 781] |  | H (key: H shows more than 50% of control values; L shows 50% or less of control values)
COc1cc(F)c(-c2c(-c3ccccc3)cc(Br)c(=O)n2C)c(F)c1 [Compound 782] |  | H (key: H shows more than 50% of control values; L shows 50% or less of control values)
COc1cccc(-c2ccc(=O)n(C)c2-c2c(F)cccc2F)c1Cl [Compound 784] |  | H (key: H shows more than 50% of control values; L shows 50% or less of control values)
COc1cccc(-c2cc(Cl)c(=O)n(C)c2-c2c(F)cccc2F)c1Cl [Compound 785] |  | H (key: H shows more than 50% of control values; L shows 50% or less of control values)
COc1cccc(-c2cc(Br)c(=O)n(C)c2-c2c(F)cccc2F)c1Cl [Compound 786] |  | H (key: H shows more than 50% of control values; L shows 50% or less of control values)
COc1cc(F)c(-c2c(-c3cccc(OC)c3Cl)cc(Cl)c(=O)n2C)c(F)c1 [Compound 788] |  | H (key: H shows more than 50% of control values; L shows 50% or less of control values)
CCn1c(-c2c(F)cc(F)cc2F)c(-c2cc(F)cc(F)c2)ccc1=O [Compound 789] |  | H (key: H shows more than 50% of control values; L shows 50% or less of control values)
